Test results published in PubChem BioAssay AID1159614 (National Center for Advancing Translational Sciences (NCATS), 2016).
Screen size: about 45,000 compounds; about 65 (0.1%) were called active. Calls come from the whole dose curve; as a rule, active = well fitted activation curve with a large enough effect; inconclusive = small, poorly fitted or top-dose-only effect; inactive = no such curve, though single readings can be large or run the other way. This is one part of the list.

biological target: Galactocerebrosidase (Homo sapiens) (UniProt P54803); test: A Novel Cell-Based Assay to Identify Small Molecules for B -Galactocerebrosidase; conditions: 145M-Twi-hGALC-G270D cells (Twitcher mouse brain line with human GALC G270D), HMU-beta-Gal fluorescence, 48 h; series mostly up to 57.5 µM; activation: at the top concentration; note: 0% is about no effect; nearly all actives have a fitted effect of over 65% in size
Chain of UniProt P54803 (P54803 whole entry, looked up): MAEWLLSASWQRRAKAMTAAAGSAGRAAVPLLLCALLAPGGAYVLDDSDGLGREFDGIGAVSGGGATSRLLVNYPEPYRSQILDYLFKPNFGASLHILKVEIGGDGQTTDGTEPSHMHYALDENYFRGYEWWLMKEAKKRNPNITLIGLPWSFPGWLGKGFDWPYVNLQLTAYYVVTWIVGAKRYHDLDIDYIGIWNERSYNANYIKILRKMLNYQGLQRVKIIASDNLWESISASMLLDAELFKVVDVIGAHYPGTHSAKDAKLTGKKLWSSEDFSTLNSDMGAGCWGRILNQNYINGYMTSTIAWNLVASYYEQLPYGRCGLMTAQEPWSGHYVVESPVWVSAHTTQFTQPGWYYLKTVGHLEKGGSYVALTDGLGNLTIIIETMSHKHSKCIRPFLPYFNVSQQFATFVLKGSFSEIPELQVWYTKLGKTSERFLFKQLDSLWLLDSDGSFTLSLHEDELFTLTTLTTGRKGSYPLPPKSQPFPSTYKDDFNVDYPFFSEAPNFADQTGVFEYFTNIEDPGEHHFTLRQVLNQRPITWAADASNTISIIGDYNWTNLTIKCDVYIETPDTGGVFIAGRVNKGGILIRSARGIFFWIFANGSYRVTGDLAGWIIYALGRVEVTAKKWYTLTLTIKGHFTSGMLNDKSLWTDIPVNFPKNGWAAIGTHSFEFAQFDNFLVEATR
Outline: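 Mutant human GALC (G270D), stably expressed in a Twitcher mouse brain cell line lacking endogenous GALC, is measured in live-treated cells via 6-hexadecanoylamino-4-methylumbelliferyl-β-galactoside hydrolysis (0.1 mM final, pH 5.2) with fluorescent detection.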

| SMILES | activation |
| --- | --- |
| O=C(O)Cn1nnc(-c2ccc(OCc3cccc(C(F)(F)F)c3)cc2)n1 | inactive: -32.9% |
| COc1ccc(Cn2c(CCC(=O)NCc3cccc(Cl)c3)nc3cccnc32)cc1 | inactive: -21.7% |
| CCOC(=O)c1[nH]c(C)c(CCC(=O)NCc2ccc(N(C)C)cc2)c1C | inactive: 1.03% |
| COc1ccc(S(=O)(=O)NCCc2cc3ccc(C)c(C)c3[nH]c2=O)cc1 | inactive: -36.2% |
| CCOC(=O)c1cc(S(=O)(=O)Nc2ccc(C)cc2Cl)[nH]n1 | inactive: -13% |
| COc1cccc(NC(=O)C2CCC(CNS(=O)(=O)c3ccc4c(c3)CC(C)N4C(C)=O)CC2)c1 (stereo not drawn) | inactive: -12.4% |
| COc1ccc(CNC(=O)CSc2nc3ccccc3nc2Cc2ccccc2)cc1 | inactive: -1.23% |
| O=C(CSc1nccn1Cc1ccco1)Nc1ccc(F)cc1 | inactive: -12.5% |
| CCOC(=O)CC(NC(=O)Cn1nnc(-c2ccc(C(F)(F)F)cc2)n1)c1ccc(OC)cc1 (stereo not drawn) | inactive: -10.4% |
| CCCC1=Nc2cc(C(=O)NC3CCCC3)ccc2Sc2ccc(C)cc21 | inactive: -28.7% |
| COc1cccc2c1cc1c(=O)n(CC(=O)N3CCN(c4cccc(C)c4)C(C)C3)nc(C)n12 (stereo not drawn) | inactive: -8.82% |
| Cc1cc(C)cc(NC(=O)CSc2cc(C)[nH]c(=O)n2)c1 | inactive: -1.73% |
| COc1ccc(C)cc1NC(=O)c1ccc2c(SCC(=O)O)c3c(nc2c1)CCCC3 | inactive: -14.4% |
| CCOc1ccc(NC(=O)C2CC(=O)N(c3ccc(C(C)C)cc3)C2)cc1 (stereo not drawn) | inactive: -14.6% |
| COc1ccc(NC(=O)c2sc3nc[nH]c(=O)c3c2C)cc1Cl | inactive: -26.4% |
| Cn1c(=O)n(-c2ccc3c(c2)OCO3)c2nc(-c3ccccc3)nc(C(N)=O)c21 | inactive: -18.9% |
| COc1ccc(C(=O)N2CCN(Cc3cc(=O)n4nc(-c5ccccc5C)sc4n3)CC2)cc1OC | inactive: 18.7% |
| CC(=O)Nc1ccc(-c2cc(C(=O)O)c3c(-c4ccccc4)[nH]nc3n2)cc1 | inactive: -4.46% |
| COc1cc(CN(C(=O)COc2ccc(C)cc2)c2ccccn2)cc(OC)c1OC | inactive: -40.3% |
| Cc1cccc(NC(=O)C2CCN(S(=O)(=O)c3ccc(F)cc3)CC2)c1C | inactive: -14.3% |
| CCCCNC(=O)c1nn(-c2ccc(CC)cc2)nc1CO | inactive: -0.267% |
| COc1cccc(CN(C(=O)c2oc3cc(C)ccc3c2C)C2CCS(=O)(=O)C2)c1 (stereo not drawn) | inactive: -21.4% |
| CCN(CC)CC(C)CNC(=O)c1cc(-c2ccc(Br)s2)nc2ccccc12 (stereo not drawn) | inactive: -10.1% |
| CCOC(=O)c1ccc(NS(=O)(=O)c2ccc3c(c2)n(C)c(=O)n3C)cc1 | inactive: -21.9% |

| SMILES | activation |
| --- | --- |
| CC1CCC(NC(=O)c2ccc3c(c2)N(Cc2cccc(Cl)c2)C(=O)c2ccccc2S3(=O)=O)CC1 (stereo not drawn) | inactive: -13% |
| CCCn1c(=O)sc2cc(NC(=O)COc3ccc(Cl)cc3)ccc21 | inactive: -8.31% |
| CCc1ccccc1NC(=O)Cn1nnc(C(=O)NCc2ccccc2Cl)c1N | inactive: -19.6% |
| COc1ccc(CCNC(=O)c2ccc3c(c2)c(C)c(C)n3Cc2ccc(F)cc2)c(OC)c1OC | inactive: 1.5% |
| COc1ccc(-c2nc(CSCC(=O)N3CCN(c4cccc(C)c4C)CC3)c(C)o2)cc1OC | inactive: -9.85% |
| COc1cccc(-n2c(=O)c3c4c(sc3n(Cc3ccc(C)cc3)c2=O)CCCC4)c1 | inactive: 0.137% |
| Cc1ccc2nc(-c3ccccc3F)c(Nc3ccc(Cl)cc3)n2c1 | inactive: -4.34% |
| COc1ccc(-c2nc3c4ccccc4n(CC(=O)N4CCN(c5ccccc5OC)CC4)c(=O)n3n2)cc1 | inactive: -19% |
| CCN(CC)CCCNC(=O)CN1C(=O)CCn2nc(-c3cn(C)c4ccccc34)cc21 | inactive: -9.63% |
| Cc1ccc(C(=O)c2cn(CC(=O)NC3CCCCC3)c3nc(C)ccc3c2=O)cc1 | inactive: -13.5% |
| Cc1c(C(=O)N2CCCC2)oc2c1-c1nn(CC(=O)NCCCOC(C)C)cc1CC2 | inactive: 1.86% |
| COc1cccc(C(=O)Nc2ccccc2C(=O)OCc2cc(=O)n3nc(C4CC4)sc3n2)c1 | inactive: -11.7% |
| Cc1nnc(NC(=O)CSCc2cc(=O)c3cc(Cl)ccc3[nH]2)s1 | inactive: 7.35% |
| O=S(=O)(NCc1ccc(F)cc1)c1ccc(-c2cnc(C3CC3)o2)cc1 | inactive: -13.4% |
| O=C(Nc1cc2c(cc1C(=O)c1ccccc1)OCCO2)c1ccc(Br)cc1 | inactive: -4.73% |
| O=C(c1cccn1-c1nnc(N2CCCC2)s1)N1CCN(c2ccccc2)CC1 | inactive: -3.21% |
| CN(C)CCN(Cc1ccccc1)S(=O)(=O)c1ccc2[nH]c(=O)ccc2c1 | inactive: -14.3% |
| O=C(NC1CC(=O)N(c2cccc(F)c2)C1)C1CCCC1 (stereo not drawn) | inactive: -1.46% |
| Cc1c(C)c2c(cc(C)c3c(-c4ccccc4)coc32)oc1=O | inactive: -24.5% |
| COc1ccccc1-n1ncc2c(=O)[nH]c(SCC(=O)Nc3ccc(Cl)cc3)nc21 | inactive: -2.17% |
| Cc1ccc(CNC(=O)c2cccn2-c2nnc(N3CCCCC3)s2)cc1 | inactive: -16.3% |
| COc1cc(-c2nc(Cn3nnc(C(=O)Nc4ccccc4)c3C)c(C)o2)cc(OC)c1OC | inactive: -13.5% |
| COc1cccc(-n2cc(C(=O)NCCc3ccc(C)cc3)c3ccccc3c2=O)c1 | inactive: 6.34% |
| COc1ccc2oc(=O)c(-c3csc(-c4ccc(Br)cc4)n3)cc2c1 | inactive: -27.2% |
